Among the data in US9650358B2 (priority 2013, dated 2017) are EC50 values, retold here.

The test system of this test is H929 cells. The test is described as follows: cells. The note with it: Homo sapiens, NCI-H929, 24 h, read-out: H929 viability EC50.

The term EC50 denotes the concentration at which the effect is half-maximal. With `O=C(Nc1cc(-c2ccc3c(c2)NCC3)c(Cl)cn1)[C@@H]1CCCNC1` [Example 2, (3R)—N-[5-chloro-4-(2,3-dihydro-1H-indol-6-yl)pyridin-2-yl]piperidine-3-carboxamide], the EC50 is 6400 nM. As for `Cn1cnc2ccc(-c3cc(NC(=O)[C@@H]4CCCNC4)ncc3Cl)cc21` [Example 3, (3R)—N-[5-chloro-4-(1-methyl-1H-benzimidazol-6-yl)pyridin-2-yl]piperidine-3-carboxamide], the figure is 3000 nM; as for `O=C(Nc1cc(-c2ccc3c(c2)N(CC2CCOCC2)CC3)c(Cl)cn1)[C@@H]1CCCNC1` [Example 4, (3R)—N-{5-chloro-4-[1-(tetrahydro-2H-pyran-4-ylmethyl)-2,3-dihydro-1H-indol-6-yl]pyridin-2-yl}piperidine-3-carboxamide], 2700 nM; as for `O=C(Nc1cc(-c2ccc3ccn(Cc4cccc(F)c4)c3c2)c(Cl)cn1)[C@@H]1CCCNC1` [Example 7, (3R)—N-{5-chloro-4-[1-(3-fluorobenzyl)-1H-indol-6-yl]pyridin-2-yl}piperidine-3-carboxamide], 680 nM.

As for `O[C@H]1CC[C@H](Nc2cc(-c3ccc4c(c3)N(Cc3cccc(F)c3)CC4)c(Cl)cn2)CC1` [Example 10, trans-4-({5-chloro-4-[1-(3-fluorobenzyl)-2,3-dihydro-1H-indol-6-yl]pyridin-2-yl}amino)cyclohexanol], the EC50 was determined as 3600 nM. `O=C(Nc1cc(-c2ccc3ncn(CCN4CCOCC4)c3c2)c(Cl)cn1)[C@@H]1CCCNC1` [Example 14, (3R)—N-(5-chloro-4-{1-[2-(morpholin-4-yl)ethyl]-1H-benzimidazol-6-yl}pyridin-2-yl)piperidine-3-carboxamide]: the half-maximal effective concentration (EC50) came to 750 nM. As for `CC(C)(O)CCn1cnc2ccc(-c3cc(NC(=O)[C@@H]4CCCNC4)ncc3Cl)cc21` [Example 15, (3R)—N-{5-chloro-4-[1-(3-hydroxy-3-methylbutyl)-1H-benzimidazol-6-yl]pyridin-2-yl}piperidine-3-carboxamide], the figure is 730 nM; as for `NS(=O)(=O)CCn1cnc2ccc(-c3cc(NC(=O)[C@@H]4CCCNC4)ncc3Cl)cc21` [Example 19, (3R)—N-{5-chloro-4-[1-(2-sulfamoylethyl)-1H-benzimidazol-6-yl]pyridin-2-yl}piperidine-3-carboxamide], 1450 nM; as for `O=C(Nc1cc(-c2ccc3ncn(CC4CCS(=O)(=O)C4)c3c2)c(Cl)cn1)[C@@H]1CCCNC1` (stereo partly drawn) [Example 20, (3R)—N-(5-chloro-4-{1-[(1,1-dioxidotetrahydrothiophen-3-yl)methyl]-1H-benzimidazol-6-yl}pyridin-2-yl)piperidine-3-carboxamide], 680 nM. For the molecule `O=C(Nc1cc(-c2ccc3ncn(Cc4cccnc4)c3c2)c(Cl)cn1)[C@@H]1CCCNC1` [Example 22, (3R)—N-{5-chloro-4-[1-(pyridin-3-ylmethyl)-1H-benzimidazol-6-yl]pyridin-2-yl}piperidine-3-carboxamide], the EC50 worked out at 390 nM.

For the molecule `O=C(Nc1cc(-c2ccc3ncn(CC4CCS(=O)(=O)CC4)c3c2)c(Cl)cn1)[C@@H]1CCCNC1` [Example 23, (3R)—N-(5-chloro-4-{1-[(1,1-dioxidotetrahydro-2H-thiopyran-4-yl)methyl]-1H-benzimidazol-6-yl}pyridin-2-yl)piperidine-3-carboxamide], the half-maximal effective concentration (EC50) came out at 690 nM. As for `Cc1nnc(Cn2cnc3ccc(-c4cc(NC(=O)[C@@H]5CCCNC5)ncc4Cl)cc32)[nH]1` [Example 24, (3R)—N-(5-chloro-4-{1-[(5-methyl-4H-1,2,4-triazol-3-yl)methyl]-1H-benzimidazol-6-yl}pyridin-2-yl)piperidine-3-carboxamide], the figure is > 10000 nM; as for `CNC(=O)N[C@H]1CC[C@H](Nc2cc(-c3ccc4ncn(Cc5cccc(F)c5)c4c3)c(Cl)cn2)CC1` [Example 27, 1-[trans-4-({5-chloro-4-[1-(3-fluorobenzyl)-1H-benzimidazol-6-yl]pyridin-2-yl}amino)cyclohexyl]-3-methylurea], 340 nM. Regarding `N#Cc1cn(Cc2ccccc2)c2cc(-c3cc(NC(=O)[C@@H]4CCCNC4)ncc3Cl)ccc12` [Example 29, (3R)—N-[4-(1-benzyl-3-cyano-1H-indol-6-yl)-5-chloropyridin-2-yl]piperidine-3-carboxamide], the EC50 is 1000 nM. The result for `O=C(Nc1cc(-c2cnc3ccn(Cc4cccc(F)c4)c3c2)c(Cl)cn1)[C@@H]1CCCNC1` [Example 33, (3R)—N-{5-chloro-4-[1-(3-fluorobenzyl)-1H-pyrrolo[3,2-b]pyridin-6-yl]pyridin-2-yl}piperidine-3-carboxamide] reads 430 nM; that for `Fc1cccc(Cn2cnc3ccc(-c4cc(NCCNc5cccnc5)ncc4Cl)cc32)c1` [Example 34, N-{5-chloro-4-[1-(3-fluorobenzyl)-1H-benzimidazol-6-yl]pyridin-2-yl}-N′-(pyridin-3-yl)ethane-1,2-diamine], 1100 nM; that for `Cn1cc(N2CCCC(Nc3cc(-c4ccc5ncn(Cc6cccc(F)c6)c5c4)c(Cl)cn3)C2)cn1` (stereo not drawn) [Example 39, 5-chloro-4-[1-(3-fluorobenzyl)-1H-benzimidazol-6-yl]-N-[1-(1-methyl-1H-pyrazol-4-yl)piperidin-3-yl]pyridin-2-amine], 750 nM. As to `CCN1CCC(CCNc2cc(-c3ccc4ncn(Cc5cccc(F)c5)c4c3)c(Cl)cn2)CC1` [Example 41, 5-chloro-N-[2-(1-ethylpiperidin-4-yl)ethyl]-4-[1-(3-fluorobenzyl)-1H-benzimidazol-6-yl]pyridin-2-amine], the concentration giving a half-maximal response (EC50) worked out at 690 nM. Turning to `Fc1cccc(Cn2cnc3ccc(-c4cc(NCCNc5ccncc5)ncc4Cl)cc32)c1` [Example 43, N-{5-chloro-4-[1-(3-fluorobenzyl)-1H-benzimidazol-6-yl]pyridin-2-yl}-N′-(pyridin-4-yl)ethane-1,2-diamine], the EC50 was found to be 1200 nM. On to `Fc1cccc(Cn2cnc3ccc(-c4cc(NCCCNc5ccccc5)ncc4Cl)cc32)c1` [Example 47, N-{5-chloro-4-[1-(3-fluorobenzyl)-1H-benzimidazol-6-yl]pyridin-2-yl}-N′-phenylpropane-1,3-diamine], for which the half-maximal effective concentration (EC50) amounted to 970 nM. For the molecule `CC(CCN)Nc1cc(-c2ccc3ncn(Cc4cccc(F)c4)c3c2)c(Cl)cn1` (stereo not drawn) [Example 48, N^3-{5-chloro-4-[1-(3-fluorobenzyl)-1H-benzimidazol-6-yl]pyridin-2-yl}butane-1,3-diamine], the concentration for a half-maximal effect (EC50) stood at 1300 nM. The result for `Nc1cc(-c2ccc3ncn(Cc4cccc(F)c4)c3c2)c(Cl)cn1` [Example 49, 5-chloro-4-[1-(3-fluorobenzyl)-1H-benzimidazol-6-yl]pyridin-2-amine] reads 3700 nM; that for `Fc1cccc(Cn2cnc3ccc(-c4cc(NCc5c[nH]cn5)ncc4Cl)cc32)c1` [Example 50, 5-chloro-4-[1-(3-fluorobenzyl)-1H-benzimidazol-6-yl]-N-(1H-imidazol-4-ylmethyl)pyridin-2-amine], 1800 nM; that for `CC(Cc1cnccn1)Nc1cc(-c2ccc3ncn(Cc4cccc(F)c4)c3c2)c(Cl)cn1` (stereo not drawn) [Example 52, 5-chloro-4-[1-(3-fluorobenzyl)-1H-benzimidazol-6-yl]-N-[1-(pyrazin-2-yl)propan-2-yl]pyridin-2-amine], 1100 nM.
